Patent publication US20240158515A1, “ANTI-FGFR3 ANTIBODIES AND ANTIGEN-BINDING FRAGMENTS AND METHODS OF USE THEREOF” (Regeneron Pharmaceuticals, Inc., priority 2022, published 2024)

Assays:
[1] = biological target: T1, human FGFR3b (hFGFR3b.mmH, REGN3152) (Homo sapiens, UniProt P22607); test: Biacore SPR binding kinetics, monomeric human FGFR3b to captured antibodies; details: 25° C.
T1 construct: REGN3152 (human FGFR3b expressed with a C-terminal myc-myc-hexahistidine tag)
Description: Biacore binding kinetics of anti-FGFR3 antibodies, in an antibody capture format, to monomeric human FGFR3b, cynomolgus FGFR3b, murine FGFR3b, human FGFR3c, and dimeric human FGFR3b ecto domain recombinant proteins at 25° C. were analyzed.
Equilibrium dissociation constants (KD values) for human FGFR3b expressed with a C-terminal myc-myc-hexahistidine tag (hFGFR3b.mmH, REGN3152) or cynomolgus FGFR3b expressed with a C-terminal myc-myc-hexahistidine tag (mfFGFR3b.mmH, REGN3521), or murine FGFR3b expressed with a C-terminal myc-myc-hexahistidine tag (mFGFR3b.mmH, REGN3215) or human FGFR3c expressed with a C-terminal myc-myc-hexahistidine tag (hFGFR3c.mmH, REGN3155) or human FGFR3b expressed with an C-terminal murine Fc tag (hFGFR3b.mFc, REGN3153) binding to purified anti-FGFR3 antibodies were determined using a real-time surface plasmon resonance biosensor technology using a Biacore 3000 or Biacore 4000 instrument. The CM5 Biacore sensor surface was derivatized by amine coupling with a monoclonal mouse anti-human Fc monoclonal antibody (REGN2567). All Biacore binding studies were performed in a buffer composed of 0.01M HEPES pH 7.4, 0.15 M NaCl, 3 mM EDTA, 0.05% v/v Surfactant P20 (HBS-EP running buffer). Different concentrations of monomeric proteins prepared in HBS-EP running buffer (ranging from 90 nM to 3.33 nM in 3-fold serial dilutions) or dimeric protein (hFGFR3b.mFc, REGN3153) prepared in HBS-EP running buffer (ranging from 30 to 10 nM in 3-fold serial dilution) were injected over the captured anti-FGFR3 antibodies at a flow rate of 30 μL/minute. Antibody-reagent association was monitored for 5 minutes while dissociation in HBS-EP running buffer was monitored for 10 minutes. At the end of each cycle, the anti-FGFR3 antibody capture surface was regenerated using a 10 sec injection of 20 mM phosphoric acid. All binding kinetics experiments were performed at 25° C.
The specific SPR-Biacore sensorgrams were obtained by a double referencing procedure. The double referencing was performed by first subtracting the signal of each injection over a reference surface (anti-hFc) from the signal over the experimental surface (anti-hFc-captured anti-FGFR3 antibodies) thereby removing contributions from refractive index changes. In addition, running buffer injections were performed to allow subtraction of the signal changes resulting from the dissociation of captured antibodies from the coupled anti-hFc surface. Kinetic association (ka) and dissociation (kd) rate constants were determined by fitting the real-time sensorgrams to a 1:1 binding model using Scrubber v2.0c curve fitting software. Binding dissociation equilibrium constants (KD) and dissociative half-lives (t½) were calculated from the kinetic rate constants as: […]

[2] = system: UMUC14 bladder cancer cells (endogenous FGFR3 S249C); test: Cancer cell spheroid proliferation assay (CellTiter-Glo 3D); format: cell-based; details: 100 nM to 15.2 pM, 5-6 days, FIG. 4
Description: 7500 UMUC14 bladder cancer cells were seeded in U-bottom low attachment 96-well spheroid plate (Corning) in culture medium (MEM medium with 10% FBS, 1% Non-Essential Amino Acids, Pen/Strep). Cells were cultured for 48 hours at 37° C. 5% CO2 to allow tumor spheroid formation. Tumor spheroids were treated with antibodies at concentration ranging from 100 nM to 15.2 pM with 1:3 serial dilution as indicated in the figure. Cells were cultured for 5-6 days, and then subjected to CellTiter-Glo 3D viability assays (Promega) following the manufacturer's protocol. Luminescence signal was read on SpectraMax M3 plate reader. Cell proliferation was expressed as percentages of untreated controls. Data were analyzed using GrasphPad Prism software using three parameter nonlinear curve fit.

[3] = system: UMUC14 xenograft (endogenous FGFR3 S249C); test: UMUC14 xenograft tumor growth inhibition; format: in vivo, SCID mice; details: 3 or 10 mg/kg intraperitoneally twice per week, FIG. 5
Description: Tumor cells (5×10^6 UMUC14 in 50% Matrigel, 100 ul) were implanted subcutaneously into the right flank of 6 to 8-week-old female SCID mice (Jackson Laboratory). Once tumors were established (˜200 mm^3 in volume), mice were randomized into treatment groups (n=10 mice per group) and injected intraperitoneally twice per week with anti-FGFR3 antibodies or isotype control at 3 or 10 mg/kg. Tumor volume was expressed in mm^3 using the formula: V=0.5×a×b^2 where a and b were the long and short diameters of the tumor, respectively. All data were analyzed using GraphPad Prism and tumor sizes were graph as mean+SEM.

[4] = system: BaF3 cells expressing FGFR3 S249C/V557L; test: BaF3 proliferation assay, FGFR3 S249C/V557L; format: cell-based, murine; details: FIG. 12A right
Description: IL-3 dependent murine pro B cell line BaF3 cells were engineered to stably express full length human FGFR3b S249C, V557L, V557M, S249C/V557L, S249C/V557M (accession number for WT FGFR3b NP_001156685.1, amino acids M1-T808). Cells were maintained in RPMI 1640+10% FBS+P/S/G+1 ng/ml mouse IL-3+500 ug/ml Neomycin; 37° C. 5% CO2. For proliferation assays, cells were washed with IL-3-free culture media and plated at 10^5 cells/well into 96-well black wall tissue culture plates. Cells were treated with 1:3 serially diluted antibody as indicated in the presence or absence of 5 μg/ml heparin and 1 nM human FGF1. After addition of antibodies, cells were incubated at 37° C./5% CO2 for 72 h followed by the addition of an equal volume of CellTiter-Glo™ (Promega) reagent to lyse cells and detect luciferase activity. Luminescence signal was quantitated with Envision plate reader (PerkinElmer). EC50 values of the antibodies were determined using GraphPad Prism software.

T1 sequence (P22607 with tags, fused parts or gaps isoform P22607-2): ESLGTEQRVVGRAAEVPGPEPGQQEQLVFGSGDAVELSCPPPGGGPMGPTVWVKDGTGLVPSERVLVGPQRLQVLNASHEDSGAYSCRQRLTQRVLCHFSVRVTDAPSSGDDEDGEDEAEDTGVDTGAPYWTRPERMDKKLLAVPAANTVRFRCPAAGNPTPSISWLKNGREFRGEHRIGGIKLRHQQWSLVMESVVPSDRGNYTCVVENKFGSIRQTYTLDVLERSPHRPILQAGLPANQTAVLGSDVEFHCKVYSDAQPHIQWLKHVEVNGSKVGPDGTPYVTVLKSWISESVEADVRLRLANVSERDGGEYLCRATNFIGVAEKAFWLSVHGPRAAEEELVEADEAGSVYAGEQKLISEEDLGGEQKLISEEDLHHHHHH

B1: H4H30063P: anti-FGFR3 antibody, hIgG4^P; HCVR/LCVR SEQ ID NOs: 2 & 10; HC/LC SEQ ID NOs: 18 & 20 (antibody)
heavy: QVQLQESGPGLVKPSETLSLTCTVSGDSINSYFWSWIRQLPGKELEWIGHIYSSGSTRYNPSLQSRVTISIDTSKNQFSLKLSSVTAADTAVYYCARGASAVDYWGQGTLVTVSSASTKGPSVFPLAPCSRSTSESTAALGCLVKDYFPEPVTVSWNSGALTSGVHTFPAVLQSSGLYSLSSVVTVPSSSLGTKTYTCNVDHKPSNTKVDKRV[sequence of human IgG4 Fc with S228P (EU numbers) not given]
light: EIVLTQSPGTLSLSPGERATLSCRTSQSISSGYLAWYQQKPGQAPRLLIYGASRRATGIPDRFSGSGSGTDFTLTISRLEPEDFVVYYCQQYGSSPYTFGQGTKLEIKRTVAAPSVFIFPPSDEQLKSGTASVVCLLNNFYPREAKVQWKVDNALQSGNSQESVTEQDSKDSTYSLSSTLTLSKADYEKHKVYACEVTHQGLSSPVTKSFNRGEC
- ka [1]: 172000 M⁻¹ s⁻¹
- kd [1]: 3.83e-05 s⁻¹
- inhibition of UMUC14 spheroid proliferation (in words) [2]: stronger inhibition of proliferation than antibody H4H30071P and comparator antibody REGN6331
- tumor growth inhibition (in words) [3]: stronger tumor growth inhibition than comparator antibody REGN6331
- growth inhibition of BaF3 cells expressing FGFR3 S249C+V557L (in words) [4]: strongly inhibit the growth
